According to PubChem BioAssay AID686978 (National Center for Advancing Translational Sciences (NCATS), 2013):
Hit rate of the full screen: of about 420,000 compounds, about 64,000 (15%) were called active. Inconclusive results, whose numbers are uncertain, are shown with a selection of clear calls. The call rests on the fitted dose curve; in most records, active means well fitted inhibition curve with a large enough effect; inconclusive means small, poorly fitted or top-dose-only effect; inactive means flat fitted curve, though single readings scatter. Potencies of inconclusive entries are left out as doubtful fits.
On the % scale 0 is the no-effect control and ±100 the full control effect; potency means the concentration at half of the fitted maximal effect; tags describe the fitted curve by direction and shape.

Test: qHTS for Inhibitors of human tyrosyl-DNA phosphodiesterase 1 (TDP1): qHTS in cells in absence of CPT; further: nearly all actives have a fitted effect of over 55% in size
Conditions: DT40 Tdp1-/- hTDP1 cells, no CPT, ATP luminescence, 48 h; activity change, negative = growth inhibition: at 46.2 µM (top of the series) unless noted
In short: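 Stably hTDP1-transfected Tdp1-null chicken DT40 cells were treated with library compounds minus camptothecin and grown for at least 48 hr at 37 °C, after which cellular ATP was quantified by luminescence.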
With `CC(O)CNc1nc2c(c(=O)n(Cc3ccc(Cl)c(Cl)c3)c(=O)n2C)n1C` (configuration not stated) the Potency was inconclusive [inhibitor, single point]. In the case of `O=C1CCCC(O)=C1C(C#Cc1ccccc1)C1=C(O)CCCC1=O`, the Potency is reported as active: 5.17 µM. In the case of `COc1cccc(NC(=O)Cn2c(=O)n(-c3cccc(OC)c3)c(=O)c3sc4ccccc4c32)c1`, the Potency is reported as inconclusive [inhibitor, single point]. For `Cc1ccc(Cl)cc1N1CCN(C2(c3ccccc3)C(=O)c3ccccc3C2=O)CC1`, the Potency was inconclusive [inhibitor, single point]. With `CCNC(=O)N(CCOC)CC1CCCN(C2Cc3ccccc3C2)C1` (configuration not stated) the Potency was “inactive”. In the case of `COc1cc(C(=O)NCC(=O)OC(C)C(=O)Nc2ncc(Cl)cc2Cl)cc(OC)c1OC` (configuration not stated), the Potency is reported as “inactive”. For `O=S(=O)(c1ccc(Br)cc1)N1CCCC1c1nc2ccccc2s1` (configuration not stated), the Potency was inconclusive [inhibitor, partial curve]. In the case of `O=C(Cn1nnc(-c2ccccc2F)n1)Nc1ccc(S(=O)(=O)NC2CCCC2)cc1`, the Potency is reported as inconclusive [inhibitor, partial curve, poor fit]. With `CC(C)(C)c1cc(P(=O)(c2ccccc2)c2ccccc2)ccc1O` the Potency was inconclusive [inhibitor, partial curve]. For `CCN(CC)CCn1c(=O)c(Cc2ccc(OC)cc2)nc2ccccc21`, the Potency was inconclusive [inhibitor, single point]. For `COc1ccc(-c2oc3ncn(Cc4ccco4)c(=N)c3c2-c2ccc(OC)cc2)cc1`, the Potency was inconclusive [inhibitor, single point]. In the case of `COc1ccc(CN(C)C(=O)C2CC(=O)N(c3ccc4c(c3)OCCO4)C2)cc1` (configuration not stated), the Potency is reported as inconclusive [inhibitor, single point]. For `O=C(/C=C/c1ccc(Cl)cc1Cl)Nc1ccncc1`, the Potency was active: 14.6 µM. With `CCN1CCN(C(=O)C2CCN(S(=O)(=O)c3ccc4c(c3)NC(=O)C(C)S4)CC2)CC1` (configuration not stated) the Potency was “inactive”. With `COc1ccccc1N1CCN(C(=O)c2cc(-c3cccs3)on2)CC1` the Potency was inconclusive [inhibitor, partial curve]. For `COc1ccc(C(=O)CC(=O)C(=O)Nc2cccc(C(C)=O)c2)cc1`, the Potency was inconclusive [inhibitor, single point]. For `O=C(Nc1ccc(Cl)c(Cl)c1)C1CCCCC1`, the Potency was inconclusive [inhibitor, single point]. In the case of `O=C(CCN1C(=O)[C@@H]2Cc3ccccc3CN2C1=O)N[C@H](Cc1ccccc1)C(=O)O`, the Potency is reported as “inactive”. For `Cc1ccc(C(=O)C[n+]2ccc(-c3nnc4n3CCC4)cc2)cc1`, the Potency was “inactive”. With `Cn1cnc2c1c(=O)n(Cc1cccc(Br)c1)c(=O)n2C` the Potency was inconclusive [inhibitor, single point]. For `O=C(C1CC1)N1N=C2CCCCC2C1(O)C(F)(F)F` (configuration not stated), the Potency was inconclusive [inhibitor, full curve]. For `NC(=S)NN=C1c2cc(S(=O)(=O)N3CCOCC3)ccc2-c2ccc(S(=O)(=O)N3CCOCC3)cc21`, the Potency was “inactive”. With `CCN(CC)CC(O)Cn1c2ccccc2c2ccccc21` (configuration not stated) the Potency was inconclusive [inhibitor, single point]. With `O=C1CSC(c2ccccn2)N1c1ccc(C(F)(F)F)cc1` (configuration not stated) the Potency was inconclusive [inhibitor, single point]. For `O=C(Cn1c(SCCOc2ccccc2Cl)nc2ccccc21)N1CCOCC1`, the Potency was inconclusive [inhibitor, single point]. For `Fc1ccccc1N1CCN(c2nnc(C(F)(F)F)c3nnn(Cc4ccccc4)c23)CC1`, the Potency was inconclusive [inhibitor, single point]. In the case of `O=C(c1cc(-c2ccccc2Cl)on1)N1CCCC1`, the Potency is reported as “inactive”. For `COc1ccc(CCNc2ncnc3c2nnn3C)cc1OC`, the Potency was inconclusive [inhibitor, partial curve]. In the case of `Cc1ccc(S(=O)(=O)NC(=O)NC2=NC(C)(C)N(c3ccc(Cl)c(Cl)c3)C(N)=N2)cc1`, the Potency is reported as active: 1.03 µM. For `Oc1ccc(C=NNC(=S)Nc2cccnc2)nc1`, the Potency was active: 20.6 µM. In the case of `COc1ccc(CN(C)CC2CCCN(CCc3ccccc3C)C2)cc1O` (configuration not stated), the Potency is reported as inconclusive [inhibitor, full curve, poor fit]. With `O=C(Nc1cc(SCCO)cc([N+](=O)[O-])c1)c1ccc(Br)o1` the Potency was active: 20.6 µM. In the case of `CCc1ccc(NC(=O)CSc2nc(-c3ccccc3)no2)cc1`, the Potency is reported as inconclusive [inhibitor, single point]. In the case of `Cc1sc(NC(=O)CN2CCCC2)nc1-c1ccc2c(c1)CCN2C(=O)c1ccc(F)cc1`, the Potency is reported as active: 18.4 µM. In the case of `Cc1cc(C)nc(SCC(=O)NN=C2CCCC2)n1`, the Potency is reported as active: 20.6 µM. For `CC1CCCCC12NC(=O)N(CC(=O)OCC(=O)NCc1ccc(F)cc1)C2=O` (configuration not stated), the Potency was “inactive”. In the case of `c1cc(-c2ccc3[nH]ccc3c2)n2ccnc2c1`, the Potency is reported as inconclusive [inhibitor, single point]. For `CC1CCCC(NC(=O)CN2CCN(S(=O)(=O)c3cccs3)CC2)C1C` (configuration not stated), the Potency was “inactive”. In the case of `COc1ccc(NCc2n[nH]c(=O)c3ccccc23)cc1`, the Potency is reported as inconclusive [inhibitor, single point]. With `O=C(COC(=O)C1CCN(S(=O)(=O)c2ccccc2)CC1)NC(=O)c1ccc(OC(F)F)cc1` the Potency was “inactive”. In the case of `C=CCOc1ccc2c(c1)CCC1C2CCC2(C)C(O)C(O)CC12` (configuration not stated), the Potency is reported as inconclusive [inhibitor, partial curve]. In the case of `CCCCC1Cc2[nH]c(=S)[nH]c(=O)c2C(c2cccc3ccccc23)O1` (configuration not stated), the Potency is reported as inconclusive [inhibitor, single point]. For `c1ccc(CSc2ncnc3c2ncn3C2CCCCO2)cc1` (configuration not stated), the Potency was inconclusive [inhibitor, single point]. For `CCC1Nc2ncnc(N3CCN(c4ccccn4)CC3)c2N(Cc2ccc(Cl)cc2)C1=O` (configuration not stated), the Potency was inconclusive [inhibitor, single point]. For `Oc1ccc(Nc2nc(-c3ccc(O)cc3)cs2)cc1`, the Potency was active: 5.01 µM. With `CC1C(=O)N(Cc2cn(CCC3OCCCO3)nn2)CCS(=O)(=O)N1Cc1ccc(-c2cccc(N(C)C)c2)cc1` (configuration not stated) the Potency was inconclusive [inhibitor, partial curve]. In the case of `CCOc1ccc(/C=N/NC(=S)Nc2c(C)cccc2C)cc1`, the Potency is reported as active: 20.6 µM. In the case of `Cc1ccc(-n2ncc3c2CC(C)(C)CC3NC(=O)Cc2c(C)noc2C)cc1` (configuration not stated), the Potency is reported as active: 23.1 µM. In the case of `C=CCc1cc(C(=O)N2CCCCC2)ccc1O`, the Potency is reported as inconclusive [inhibitor, partial curve]. With `COc1cc(OC)cc(C(=O)NCCc2csc(-c3cccc(C)c3)n2)c1` the Potency was active: 16.4 µM. For `CCCN(CCC)C(C)C(=O)NCC1(c2ccccc2)CCCC1` (configuration not stated), the Potency was inconclusive [inhibitor, single point]. For `CC1CCCCN1C(=O)c1ccc2c(c1)N(Cc1ccc(Cl)cc1)C(=O)c1ccccc1S2=O` (configuration not stated), the Potency was inconclusive [inhibitor, single point]. With `CN(C)c1ncc2nc(-c3cc(F)cc(F)c3)c(=O)n(CCc3ccccc3)c2n1` the Potency was “inactive”. For `C/C(=N\NC(=S)NCc1ccccc1)C1CCCCC1`, the Potency was active: 6.51 µM. In the case of `CCOc1cc(N2CCOCC2)c(OCC)cc1NC(=O)c1ccccc1N1CCCC1=O`, the Potency is reported as inconclusive [inhibitor, single point]. With `CS(=O)(=O)c1ccc(Cl)c(NC(=O)COC(=O)COc2ccc3c(c2)CCC3)c1` the Potency was “inactive”. For `Cc1c(C(=O)Nc2cccc(F)c2)sc2nc(-c3cc4ccccc4oc3=O)[nH]c(=O)c12`, the Potency was inconclusive [inhibitor, single point]. In the case of `COc1ccc(NC(=O)c2c(NCc3cccs3)sc3c2CCCCC3)cc1`, the Potency is reported as active: 9.2 µM. In the case of `CN(C1CCCCC1)S(=O)(=O)c1ccc(F)c(C(=O)Nc2ccc(C(F)(F)F)cc2)c1`, the Potency is reported as active: 20.6 µM. In the case of `CCN(CC)P1(=O)OC(c2cc(OC)c(OC)c(OC)c2)=Nc2c1c(C)nn2-c1ccccc1` (configuration not stated), the Potency is reported as inconclusive [inhibitor, partial curve]. With `O=c1[nH]oc2cc(Cl)ccc12` the Potency was “inactive”. For `CC(=O)C[C@@H](O)CC(=O)[C@@H]1OC(=O)[C@@H](C)CCCCc2ccccc21`, the Potency was “inactive”. With `COc1cccc(C2=NOC(C(=O)NCc3ccco3)C2)c1` (configuration not stated) the Potency was active: 13 µM. With `C1CCC(Nc2nnnn2C2CCCCC2)CC1` the activity change, negative = growth inhibition was inconclusive: -30.3% [inhibitor]. In the case of `Cc1ccc2c(c1)nnn2C1CCN(C(=O)c2cccs2)CC1`, the Potency is reported as inconclusive [inhibitor, single point]. For `COC(=O)C1=C[C@@H](C(=O)OC)[C@@H]2C3=C(C(=O)[C@]2(C)NC(=O)c2ccccc2)[C@H](C)n2c(=O)n(-c4ccccc4)c(=O)n2[C@@H]3C1`, the Potency was “inactive”. With `Cn1c(-c2ccc(C(=O)c3ccccc3)s2)nc2ccccc21` the Potency was “inactive”. With `COc1cc(NC(C)=O)ccc1-c1cc2ccccc2oc1=O` the Potency was inconclusive [inhibitor, single point]. For `COc1ccc(NC(=O)Cn2nnc(-c3ccccc3)c2COc2ccc(C(C)=O)cc2)cn1`, the Potency was inconclusive [inhibitor, single point]. For `COc1cc(SC)ccc1C(=O)Nc1nc(C)cs1`, the Potency was active: 11.6 µM. With `NC(=O)N/N=C/c1cn(-c2ccccc2)nc1-c1cccs1` the Potency was inconclusive [inhibitor, single point]. In the case of `CCc1cccc(NC(=O)c2cc(-c3ccccc3)n[nH]2)c1`, the Potency is reported as “inactive”.
